{
  "source": "the RNAGym collection of RNA variant scans (doi:10.1093/nar/gkz1192)",
  "parents": {"B1": {"name": "CPEB3 Ribozyme (parent)", "chain": "UAACAGGGGGCCACAGCAGAAGCGUUCACGUCGCAGCCCCUGUCAGAUUCUGGUGAAUCUGCGAAUUCUGCUGUAUAUCUC"}},
  "note": "Read counts are not given, so values of variants with three or more changes are uncertain.",
  "data": [
    {"variants_of": "B1", "assay": "self-cleavage, relative activity (ratio to wild type); higher = more cleavage; in vitro, sequencing", "in_short": "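Relative activity compares each variant's cleaved/total read fraction with that of the unmutated ribozyme. To get these fractions, barcoded CPEB3 ribozyme libraries from rounds of error-prone PCR were transcribed with T7 RNA polymerase for 5 hours at 37°C and then given 15 min of DNase I treatment before EDTA was added. The RNAs were reverse transcribed with template switching and sequenced on Illumina, and DNA sequencing linked barcodes to variants. A minimum of 5 reads applied, and three batches were averaged.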", "values": [
      {"variant": "UAACAGGGGGCCACAGCAGAAGCGCUCACGUCGCAGCCCCUGUCCGAUUCCGGUGAAUCUGCGAAUUCUGCCGUAUAUCUC", "note": "[U25C A45C U51C U72C]", "self-cleavage": 0.09},
      {"variant": "UAACAGGGGGCCACAGCAGAAGCGCUCUCGUCGCAGCCCCUGUCAGAUCCUGGUGAAUCUGCGAAUUCUGCUGUAUAUCUC", "note": "[U25C A28U U49C]", "self-cleavage": 0.08},
      {"variant": "UAACAGGGGGCCACAGCAGAAGCGCUCACGUCGCUGCCCCUGUCAGAAUCUGGUGAAUCUGCGAAUUCUGCUGUAUAUCCC", "note": "[U25C A35U U48A U80C]", "self-cleavage": 0.57},
      {"variant": "UAACAGGGGGCCACAGCAGAAGCGCUCACGUCGCUGCCCCUGUCAGAUUCAGGUGAAUCUGCGAAUUCUGCUGCAUAUCUC", "note": "[U25C A35U U51A U74C]", "self-cleavage": 0.14},
      {"variant": "UAACAGGGGGCCACAGCAGAAGCGCUCACGUCGCUGCCCCCGUCAGAUUCUGGUGAAUCUGCGGAUCCAGCUGUAUAUCUC", "note": "[U25C A35U U41C A64G U67C U69A]", "self-cleavage": 0.06},
      {"variant": "UAACAGGGGGCCACAGCAGAAGCGCUCACGUCGCGGCCCCUGUCAGACUCUGGUGAAUCCGCGAAUUCUGCUGUAUAUCUC", "note": "[U25C A35G U48C U60C]", "self-cleavage": 0.18},
      {"variant": "UAACAGGGGGCCACAGCAGAAGCGCUCACGUCGCUGCCCCUGUCAGAUUCUGGUGGCUCUGCGAAUUCUGCUGUAUAUCUC", "note": "[U25C A35U A56G A57C]", "self-cleavage": 0.08},
      {"variant": "UAACAGGGGGCCACAGCAGAAGCGCUCACGUCGCAGCCCCUGUCUGAUUCUGGUUAAUCUGCGAAUUCUGCUGUAUAGCUC", "note": "[U25C A45U G55U U78G]", "self-cleavage": 0.11},
      {"variant": "UAACAGGGGGCCACAGCAGAAGCGCUCACGUCGCUGCCCCUGUCAGCUUCUGGUGAAUCUGCGAAUUCUGCUGUAUAUCUC", "note": "[U25C A35U A47C]", "self-cleavage": 0.1},
      {"variant": "UAACAGGGGGCCACAGCAGAAGCGCUCACGUCGCUGCCCCAGUCAGAUUCUGGUGAAUCUGCGAAUUCUGCUGUUUAUCUC", "note": "[U25C A35U U41A A75U]", "self-cleavage": 0.1},
      {"variant": "UAACAGGGGGCCACAGCAGAAGCGCUCACGUCGCGGCCCCAGUCAGAUUCUGGUGAAUCUGAGAAUUCUGCUGUAUAUCUC", "note": "[U25C A35G U41A C62A]", "self-cleavage": 0.31},
      {"variant": "UAACAGGGGGCCACAGCAGAAGCGCUCACGUCGCUGCCCCUGUCAUAUUCUGGUGAAACUGCGAAUCCUGCUGUAUAUCUC", "note": "[U25C A35U G46U U58A U67C]", "self-cleavage": 0.07},
      {"variant": "UAACAGGGGGCCACAGCAGAAGCGCUCACGUCGCUGCCCCUGUCAGUUCCUGGUGUACCUGCGAAUUCUGCUGCAUAUCUC", "note": "[U25C A35U A47U U49C A56U U58C U74C]", "self-cleavage": 0.04},
      {"variant": "UAACAGGGGGCCACAGCAGAAGCGCUCACGUCGCUGCCCCUGUCAGAUUCUGGUGAAUCUGCGAAUUCUGCAGUAUAUCUC", "note": "[U25C A35U U72A]", "self-cleavage": 0.09},
      {"variant": "UAACAGGGGGCCACAGCAGAAGCGCUCACGUCGCGGCCCCUGUCAGAUACUGGAGAAUCAGCGAAUUCUGCUGUAUAUCUC", "note": "[U25C A35G U49A U54A U60A]", "self-cleavage": 0.19},
      {"variant": "UAACAGGGGGCCACAGCAGAAGCGCUCACGUCGCAGCCCCUGUCGGAUUCUGGUGAAUCAGCGGAUUCUGCUGUAUAUCUC", "note": "[U25C A45G U60A A64G]", "self-cleavage": 0.18},
      {"variant": "UAACAGGGGGCCACAGCAGAAGCGCUCACGUCGCUUCCCCUGCCAGAUUCUGAUGAAUCUGCGAAUUCUGCUGUAUAUCUC", "note": "[U25C A35U G36U U43C G53A]", "self-cleavage": 0.07},
      {"variant": "UAACAGGGGGCCACAGCAGAAGCGCUCACGUCGCGGCCCCUGUCAGAUUCUGGUGACUCUGCGAAUUCUGCUGUAUAUCUC", "note": "[U25C A35G A57C]", "self-cleavage": 0.39},
      {"variant": "UAACAGGGGGCCACAGCAGAAGCGCUCACGUCGCGGCCCUUGUCAGAUUCUGGUUAAUCUGCGAAUUCUGCUGUAUAUCUC", "note": "[U25C A35G C40U G55U]", "self-cleavage": 0.24},
      {"variant": "UAACAGGGGGCCACAGCAGAAGCGCUCACGUCGCGGCCCCUGUCAGAUUCUGGUGAAUCUGCGAAUUCUGCUGUAUACCUC", "note": "[U25C A35G U78C]", "self-cleavage": 0.3},
      {"variant": "UAACAGGGGGCCACAGCAGAAGCGCUCACGUCGCUGCCCCUGUCAGAUUCUGGUGAAUCUGCGAAUUCUGCUGUACAUCUC", "note": "[U25C A35U U76C]", "self-cleavage": 0.16},
      {"variant": "UAACAGGGGGCCACAGCAGAAGCGCUCACGUCGCAGCCCCUGUCGGAUUCUGGUGAAUCUGCGAAUUCUACUGUAUAUCUC", "note": "[U25C A45G G70A]", "self-cleavage": 0.2},
      {"variant": "UAACAGGGGGCCACAGCAGAAGCGCUCACGUCGCAGCCCCUGUCGGGUUCUGGUGAAUCCGCGAAUUUUGCUGUAUAUCUC", "note": "[U25C A45G A47G U60C C68U]", "self-cleavage": 0.24},
      {"variant": "UAACAGGGGGCCACAGCAGAAGCGCUCACGUCGCAGCCCCUGUCUGAUUCUGGUGAAUCUGCCAAUUCUGCUGUAUAUCUC", "note": "[U25C A45U G63C]", "self-cleavage": 0.24},
      {"variant": "UAACAGGGGGCCACAGCAGAAGCGCUCACGUCGCUGCCCCCGUCAGAUUCUGGUGUAUCUGCGAAUUCCGCUGUAUAUCUC", "note": "[U25C A35U U41C A56U U69C]", "self-cleavage": 0.06},
      {"variant": "UAACAGGGGGCCACAGCAGAAGCGCUCACGUCGCAGCCCCUGUCCGAUUCUGGUGAAUCCGCGAGUUCUGCUGCAUAUCUC", "note": "[U25C A45C U60C A65G U74C]", "self-cleavage": 0.14},
      {"variant": "UAACAGGGGGCCACAGCAGAAGCGCUCACGUCGCUGCCCCUGUCAGAUUCUGGUGAAUCUGGGAAUUCUGCUGUAUAUCUC", "note": "[U25C A35U C62G]", "self-cleavage": 0.17},
      {"variant": "UAACAGGGGGCCACAGCAGAAGCGCUCUCGUCGCAGCCCCAGUCAGAUUCUGGUGAAUCUGCGAAUUCUGCUGUAUAUCUC", "note": "[U25C A28U U41A]", "self-cleavage": 0.19},
      {"variant": "UAACAGGGGGCCACAGCAGAAGCGCUCUCGUCGCAGCCCCCGUCAGAUUCUGGUGAAUCUGCGAAUUCUGCUGUAUAUCUC", "note": "[U25C A28U U41C]", "self-cleavage": 0.13},
      {"variant": "UAACAGGGGGCCACAGCAGAAGCGCUCACGUCGCAGCCCCUGUCGGAUUCAGGUGAAUCUGCGAAUUCUGCUGUAUACCUC", "note": "[U25C A45G U51A U78C]", "self-cleavage": 0.15},
      {"variant": "UAACAGGGGGCCACAGCAGAAGCGCUCACGUCGCAGCCCCUGUCUGUUUCUGGUGAAUCUGCGAAUUCUGCUGUUUAUCUC", "note": "[U25C A45U A47U A75U]", "self-cleavage": 0.19},
      {"variant": "UAACAGGGGGCCACAGCAGAAGCGCUCUCGUCGCAGACCCUGCCAGAUUCUGGAGAGUCUGCGAAUUCUGCUGUAUAUCUC", "note": "[U25C A28U C37A U43C U54A A57G]", "self-cleavage": 0.08},
      {"variant": "UAACAGGGGGCCACAGCAGAAGCGCUCACGUCGCUGCCCCUGUCAGGUUCAGGUGAAUCUGCGAAUUCAGCUGUAUAUCUC", "note": "[U25C A35U A47G U51A U69A]", "self-cleavage": 0.47},
      {"variant": "UAACAGGGGGCCACAGCAGAAGCGCUCACGUCGCAGCCCCUGUCUGAUUCUGGUGAAUCUGCGUAUUCUGCUGUAUAUCUC", "note": "[U25C A45U A64U]", "self-cleavage": 0.08}
    ]}
  ]
}
